From PubChem BioAssay AID686978 (National Center for Advancing Translational Sciences (NCATS), 2013)
The whole screen tested about 420,000 compounds, of which about 64,000 (15%) were called active. Inconclusive results, whose numbers are uncertain, are shown with a selection of clear calls. Calls come from the whole dose curve; as a rule, active = well fitted inhibition curve with a large enough effect; inconclusive = small, poorly fitted or top-dose-only effect; inactive = flat fitted curve, though single readings scatter. No potency is given beside an inconclusive call; the fits are too rough.

experiment: qHTS for Inhibitors of human tyrosyl-DNA phosphodiesterase 1 (TDP1): qHTS in cells in absence of CPT; details: DT40 Tdp1-/- hTDP1 cells, no CPT, ATP luminescence, 48 h; activity change, negative = growth inhibition: at 46.2 µM (top of the series) unless noted; note: nearly all actives have a fitted effect of over 55% in size
Method in brief: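 Growth of hTDP1-complemented DT40 Tdp1-knockout cells is measured by ATP luminescence after at least 48 hr compound exposure at 37 °C, with DMSO substituting for the 20 nM CPT used in the parallel screen.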
% is set by controls: 0 for no effect and ±100 for the full control effect; potency is the fitted concentration of half-maximal effect; tags give direction and shape of the fitted curve.

Structure (SMILES)	Potency	activity change, negative = growth inhibition
CCc1c(C)sc(NC(=O)c2cccs2)c1C#N	inconclusive [inhibitor, partial curve, poor fit]	
CC(C)(C)Nc1nc(Cl)nc(NC2CCCCC2)n1	inconclusive [inhibitor, single point]	
Clc1ccc(CNc2ccccc2NCc2ccc(Cl)nc2)cn1	inconclusive [inhibitor, single point]	
CCOc1cccc(=O)c2c(C)n(C)c(C)c12	inconclusive [inhibitor, single point]	
CCN(CC)CCCNC(=O)Cn1nc(C)n2c(cc3sccc32)c1=O		inactive: -9.7%
CS(=O)(=O)N1CCN(c2nc(-c3cccs3)nc3ccccc23)CC1	active: 11.2 µM	
CCNc1nc(C)nc2c1cnn2C		inactive: -8.76%
O=C(NNC(=S)Nc1cccc(C(F)(F)F)c1)c1ccccc1Cl	active: 18.4 µM	
CCCCC(=O)Nc1cccc(-c2nc3ncccc3o2)c1C	inconclusive [inhibitor, single point]	
C=CCn1cccc(C(=O)Nc2ccc(OC)cc2OC)c1=O	inconclusive [inhibitor, single point]	
CCC(=O)N1c2ccccc2CC1C(=O)NCc1cccc(C)c1 (stereo unspecified)		inactive: -2.82%
O=C(CSc1nc2ccccc2o1)Nc1nc2ccc(Br)cc2s1	inconclusive [inhibitor, single point]	
CCOC(=O)C1(Cc2ccccc2)CCN(Cc2cc(=O)c3ccccc3[nH]2)CC1	inconclusive [inhibitor, single point]	
CC(C)N=C1NN=C(c2cccs2)CS1		inactive: -21.3%
COc1ccc(N2CCN(C(CNC(=O)C(=O)NCCC3=CCCCC3)c3ccco3)CC2)cc1 (stereo unspecified)	inconclusive [inhibitor, partial curve]	
C=CCn1c(-c2ccc(Cl)cc2)cnc1SC(C)C(N)=O (stereo unspecified)		inactive: -0.688%
CN(C(=O)c1cccc(NC(=O)Cc2ccc(NC(=O)C3CCCN(C(=O)c4ccccc4)C3)cc2)c1)C1CCCCC1 (stereo unspecified)	inconclusive [inhibitor, single point]	
COc1ccc(C(=O)COC(=O)C(CCCCN2C(=O)C3C4C=CC(C4)C3C2=O)N2C(=O)C3C4C=CC(C4)C3C2=O)cc1 (stereo unspecified)	inconclusive [inhibitor, single point]	
COc1ccc(Cn2nnc3c(=O)[nH]c(C4CCCN(C(=O)c5ccc(C)cc5)C4)nc32)cc1 (stereo unspecified)	inconclusive [inhibitor, single point]	
O=C(Cn1c2c(c(-c3ccccc3)cc1=O)CCCC2)N1CCCCCC1	inconclusive [inhibitor, single point]	
CCN(CC)CCN(Cc1cc2cc3c(cc2[nH]c1=O)OCCO3)C(=S)NCCCOC		inactive: 2.68%
CCOc1ccc(OCC)c(NC(=O)CSc2nc3cccnc3n2C)c1	inconclusive [inhibitor, single point]	
CCCCc1ccc(NC(=O)Cn2nnc3sc4c(c3c2=O)CCC(C)C4)cc1 (stereo unspecified)		inconclusive: -37.2% [inhibitor]

Structure (SMILES)	Potency	activity change, negative = growth inhibition
O=C(Nc1ccc2c(c1)OCCO2)C1CCN(C(=O)c2ccc([N+](=O)[O-])cc2)CC1	inconclusive [inhibitor, single point]	
CCOC(=O)C1=C(COC(=O)CCOc2ccc(C)cc2)NC(=O)NC1C (stereo unspecified)	active: 5.8 µM	
C/C(=C1\SC(N2CCOCC2)=NC1=O)c1ccc(C)cc1	inconclusive [inhibitor, single point]	
COCC(=O)N1CCC2(CCCN(C(c3ccccc3)c3ccccc3)C2)CC1	inconclusive [inhibitor, single point]	
CCCS(=O)(=O)c1nc(S(=O)(=O)c2ccc(C)cc2)c(NCc2ccccn2)s1	inconclusive [inhibitor, single point]	
O=C(Nc1ccc2c(c1)OCO2)C1CCCN1C(=O)Nc1ccccc1 (stereo unspecified)		inactive: -5.47%
COc1ccc(C(=O)Nc2cc(C)c3c(=O)oc4ccccc4c3n2)cc1	inconclusive [inhibitor, single point]	
Oc1c(N=Nc2ccc(F)cc2)ccc2ccccc12	active: 14.6 µM	
Cc1ccc(C(=O)c2oc3ccccc3c2NC(=O)Cc2coc3cc(C)ccc23)cc1	inconclusive [inhibitor, single point]	
OC1(C(F)(F)F)CC(c2ccc3ccccc3c2)=NO1 (stereo unspecified)		inactive: 4.48%
O=C(CCCC(=O)NNC(=O)Nc1ccccc1)NNC(=O)Nc1ccccc1		inactive: -10.8%
Clc1cccc(CSc2nncn3c2cc2sccc23)c1	inconclusive [inhibitor, partial curve]	
COc1cccc(CN(c2ccccc2C(=O)O)S(=O)(=O)c2ccc(C)cc2)c1		inactive: -6.92%
O=C(Nc1cccc(NC(=O)c2ccccc2Cl)c1)c1ccc(F)cc1	inconclusive [inhibitor, single point]	
COc1ccc(NC(=O)c2ccc3oc(=O)c(S(=O)(=O)c4ccc(C)cc4)cc3c2)cc1OC		inactive: -9.94%
COc1ccccc1NC(=O)COc1ccc(C(=O)OCC(=O)NC(C)(C)C)cc1OC	inconclusive [inhibitor, single point]	
CCc1ccccc1NC(=O)Cn1ccn(-c2cc(C)cc(C)c2)c(=O)c1=O		inactive: -14.9%
Nc1nc(=S)[nH]c2n[nH]nc12	active: 3.55 µM	
COCCn1c(SCC(=O)NNC(=O)c2ccc(OC)c(OC)c2)nc2ccccc2c1=O		inactive: -5.73%
COc1ccc(F)cc1-c1cc(C(=O)Nc2ccc(NC(C)=O)cc2)[nH]n1	inconclusive [inhibitor, single point]	
COC(=O)c1ccsc1NC(=O)CN1CCN(c2ncccn2)CC1	inconclusive [inhibitor, single point]	
Cc1nn(S(=O)(=O)c2ccccc2)c(C)c1S(=O)(=O)N1CCC(C)CC1	inconclusive [inhibitor, single point]	
Cc1ccc(Cl)cc1N(CC(=O)Nc1cccc(N(C)S(C)(=O)=O)c1)S(C)(=O)=O	inconclusive [inhibitor, partial curve]	
